T1: human GLP-2 receptor (human, UniProt O95838 1-553)
T1 sequence (looked up): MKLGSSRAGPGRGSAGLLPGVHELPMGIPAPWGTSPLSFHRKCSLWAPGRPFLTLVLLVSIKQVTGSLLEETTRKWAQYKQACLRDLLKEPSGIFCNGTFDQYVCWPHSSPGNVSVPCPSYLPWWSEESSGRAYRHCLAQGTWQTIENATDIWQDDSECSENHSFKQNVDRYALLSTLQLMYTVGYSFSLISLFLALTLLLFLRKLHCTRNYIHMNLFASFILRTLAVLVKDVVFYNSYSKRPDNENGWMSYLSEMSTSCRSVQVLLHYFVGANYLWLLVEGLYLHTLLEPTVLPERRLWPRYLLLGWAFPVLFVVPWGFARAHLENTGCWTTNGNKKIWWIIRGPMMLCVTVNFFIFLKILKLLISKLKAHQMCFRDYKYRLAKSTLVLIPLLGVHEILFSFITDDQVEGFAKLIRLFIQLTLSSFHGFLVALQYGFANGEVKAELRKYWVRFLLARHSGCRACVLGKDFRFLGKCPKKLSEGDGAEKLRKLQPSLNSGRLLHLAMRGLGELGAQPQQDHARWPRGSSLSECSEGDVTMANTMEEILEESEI

B1: GLP-2 peptibody A (Fc fusion)
chain: HGDGSFSDEMNTILDNLAARDFINWLIQTKITD[letters of human IgG1 Fc with changes left out]
B2: GLP-2 peptibody E (Fc fusion)
chain: HGDGSFSDEMNTILDNLAARDFINWLIQTKITDGGGGGGSGGGGSGGGGS[letters of human IgG1 Fc with changes left out]
B3: GLP-2 peptibody J (Fc fusion)
chain: HGDGSFSDEMNTILDNLAARDFINWLIQTKITDGAPGGGGGAAAAAGGGGGGAPGGGGGAAAAAGGGGGGAPGGGGGAAAAAGGGGGGAP[letters of human IgG1 Fc with changes left out]
notes: GLP-2[A2G]-long GAP/G/A linker-IgG1 Fc (LALA)
B4: GLP-2 peptibody L (Fc fusion)
chain: HGDGSFSDEMNTILDNLAARDFINWLIQTKITDGGGGGGG[letters of human IgG1 Fc with changes left out]
notes: GLP-2[A2G]-GGGGGGG-IgG1 Fc (LALA)
B5: GLP-2 peptibody M (Fc fusion)
chain: HGDGSFSDEMNTILDNLAARDFINWLIQTKITDGGGGSGGGGS[letters of human IgG1 Fc with changes left out]
notes: GLP-2[A2G]-(GGGGS)2-IgG1 Fc (LALA)

Target: T1, human GLP-2 receptor
Assay: cell-based or functional assay

Binder	EC50 (nM), cAMP Hunter eXpress GLP2R CHO-K1 GPCR assay
B1	128 nM
B2	2.43 nM
B3	3.23 nM
B4	6.16 nM
B5	4.51 nM

Reference: US20200199192A1 (SHIRE NPS PHARMACEUTICALS, published 2020)
